Measurements reported in paper PMC4336329 (PLoS ONE, 2015).
Among all 310,000 compounds or so, about 2,200 (0.71%) showed an effect of 50% or more. The effect is printed as a negative number. This is one part of the list.

Molecular target: human ether-à-go-go-related gene (hERG) potassium channel (human, UniProt Q12809)
Assay: primary screen, population patch clamp on CHO cells stably expressing hERG

Sequence of human ether-à-go-go-related gene (hERG) potassium channel (Q12809 whole entry, looked up): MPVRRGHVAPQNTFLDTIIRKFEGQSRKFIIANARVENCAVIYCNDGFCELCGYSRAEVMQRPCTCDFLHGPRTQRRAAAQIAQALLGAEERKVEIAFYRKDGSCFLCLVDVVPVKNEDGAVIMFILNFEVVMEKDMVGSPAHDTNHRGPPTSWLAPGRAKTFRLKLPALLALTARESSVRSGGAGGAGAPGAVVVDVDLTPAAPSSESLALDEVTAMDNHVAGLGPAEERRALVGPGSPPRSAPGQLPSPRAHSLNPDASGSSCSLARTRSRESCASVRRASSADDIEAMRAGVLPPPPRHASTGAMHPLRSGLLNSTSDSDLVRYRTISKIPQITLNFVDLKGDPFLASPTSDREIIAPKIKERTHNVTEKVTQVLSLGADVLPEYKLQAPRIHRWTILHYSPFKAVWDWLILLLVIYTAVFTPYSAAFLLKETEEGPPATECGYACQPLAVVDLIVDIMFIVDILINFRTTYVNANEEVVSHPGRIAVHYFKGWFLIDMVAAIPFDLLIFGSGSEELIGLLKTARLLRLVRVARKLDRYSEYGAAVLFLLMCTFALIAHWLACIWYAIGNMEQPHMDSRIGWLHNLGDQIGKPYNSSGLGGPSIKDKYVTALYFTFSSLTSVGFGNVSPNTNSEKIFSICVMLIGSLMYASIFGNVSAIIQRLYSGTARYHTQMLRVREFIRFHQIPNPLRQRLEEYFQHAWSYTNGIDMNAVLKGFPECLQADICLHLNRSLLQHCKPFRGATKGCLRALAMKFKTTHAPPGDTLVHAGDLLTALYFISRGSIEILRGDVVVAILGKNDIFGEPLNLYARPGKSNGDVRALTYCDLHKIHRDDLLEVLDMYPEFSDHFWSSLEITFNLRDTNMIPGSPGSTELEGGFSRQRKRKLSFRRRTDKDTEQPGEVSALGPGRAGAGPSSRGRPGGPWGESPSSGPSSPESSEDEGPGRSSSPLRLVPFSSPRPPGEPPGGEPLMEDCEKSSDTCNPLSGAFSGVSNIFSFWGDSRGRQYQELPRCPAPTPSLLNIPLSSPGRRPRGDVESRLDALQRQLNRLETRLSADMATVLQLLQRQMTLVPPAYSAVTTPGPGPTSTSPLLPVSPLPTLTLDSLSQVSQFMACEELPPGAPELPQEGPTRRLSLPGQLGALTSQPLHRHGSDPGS

Row | Structure (SMILES) | hERG current change (%, negative = inhibition) at 1uM
1 | Cc1ccc(S(=O)(=O)CCC(=O)Nc2cccc([N+](=O)[O-])c2)cc1 | -7.98%
2 | Cc1nc([N+](=O)[O-])cn1CC(O)c1ccc(-c2ccccc2)cc1 (stereo not drawn) | -6.66%
3 | N/C(=N\OC(=O)c1ccco1)c1ccccc1 | 13.6%
4 | Cc1ccc(NC(=O)c2cc(-c3ccccc3)nn2-c2ccccc2)c(Br)c1 | 1.57%
5 | CCOCCn1c(CN2CCN(c3ccccc3)CC2)nc2c1c(=O)n(C)c(=O)n2C | -3.81%
6 | O=C(NCC(=O)N1CCN(C(c2ccccc2)c2ccccc2)CC1)c1ccccc1F | 8.87%
7 | CC1(C)c2ccccc2-n2c1cc1oc(=O)cc(O)c1c2=O | 11.9%
8 | NC(=O)c1nn(CC(=O)Nc2ccc3c(c2)OCO3)cc1[N+](=O)[O-] | 5.64%
9 | CC1CCCN(C(=O)C(C)Sc2nc(-c3ccccc3)cc(C(F)(F)F)n2)C1 (stereo not drawn) | 11.9%
10 | O=C(Nc1ccc2cn[nH]c2c1)c1ccccc1F | -1.69%
11 | Cc1cccc(C(=O)OC(C)C(=O)NC2CCCc3ccccc32)c1O (stereo not drawn) | 0.675%
12 | CCN(C(=O)COC(=O)c1ccc(Cl)c(N)c1)C1CCS(=O)(=O)C1 (stereo not drawn) | 16.5%
13 | O=C(NCc1cccnc1)C12CC3CC(CC(Cl)(C3)C1)C2 | 19%
14 | S=C1NCCc2ccccc2C1c1ccccc1Cl (stereo not drawn) | -3.99%
15 | CC(C)N(C(=O)COC(=O)c1ccc(Cl)nc1)C(C)C | 8.95%
16 | O=C(NCc1cccnc1)C(=O)NCC1OCCN1S(=O)(=O)c1ccccc1 (stereo not drawn) | 8.54%
17 | CC1=NN(c2ccccc2)C(=O)C1N=Nc1ccccc1 (stereo not drawn) | 12.2%
18 | COc1ccc(C(CNC(=O)c2ccc(C)c(S(=O)(=O)Nc3ccccc3OC)c2)N2CCCC2)cc1 (stereo not drawn) | -15.8%
19 | CCn1c(CN(C)c2ccccc2)nc2ccccc21 | 7.21%

Row | Structure (SMILES) | hERG current change (%, negative = inhibition) at 1uM
20 | CCOc1ccc(S(=O)(=O)N2CCN(S(=O)(=O)c3ccc(OCC)cc3)C(C)C2)cc1 (stereo not drawn) | -16.8%
21 | Cc1ccc(-c2csc(NC(=O)CSc3nnc4c(n3)[nH]c3ccccc34)n2)cc1 | 17.3%
22 | C1CC1Cc1noc(CN2CCN(CC3CC3)CC2)n1 | 8.29%
23 | COc1cc(OC)c2c(OC)cccc2n1 | 6.37%
24 | N#C/C(=C(/O)CCCl)c1ccccn1 | 21.1%
25 | CC(=O)N1CCc2cc(S(=O)(=O)CCC(=O)Nc3ccccc3F)ccc21 | 16.1%
26 | CN1C(=O)N(C)C(=O)C2(Cc3cc([N+](=O)[O-])ccc3N(C)C2)C1=O | 10.7%
27 | CCN(CC(=O)Nc1ccc(NC(C)=O)cc1)C(=O)/C=C/c1cn(Cc2ccccc2)nc1-c1cccnc1 | -10.3%
28 | COc1ccc(CNC(=O)CN(Cc2cccs2)C(=O)CCC(=O)Nc2ccccn2)cc1 | -15.9%
29 | CC(C)CC1(C)NC(=O)N(CC(=O)Nc2cccc(S(=O)(=O)N(C)c3ccccc3)c2)C1=O (stereo not drawn) | 5.97%
30 | COC(=O)Nc1ccc(SCC(=O)c2ccccc2)cc1 | 9.03%
31 | CS(=O)(=O)N1CCC(C(=O)Nc2ccc(C(N)=O)cc2)CC1 | 13.9%
32 | O=C(COC(=O)c1ccc(N2CCOCC2)c([N+](=O)[O-])c1)Nc1ccc2c(c1)OCO2 | 7.45%
33 | COc1ccc(C(=O)Nc2nnc(S(=O)(=O)N3CCC(C)CC3)s2)cc1OC | 5.73%
34 | Cc1ccc(C(=O)NCc2ccncc2)cc1S(=O)(=O)N1CCCCC1 | 9.32%
35 | COc1cc(C)c(S(=O)(=O)Nc2ccccc2F)cc1C | 4.78%
36 | O=C(N=C1SC2CS(=O)(=O)CC2N1c1cccc(Cl)c1Cl)C1CCCO1 (stereo not drawn) | 11.5%
37 | COc1cc(OC)c(OC)cc1/C=N/Nc1ccc(Cl)nn1 | 12.7%
38 | O=C1C=CC(=O)N1N(c1ccccc1)c1ccccc1 | 2.18%

Row | Structure (SMILES) | hERG current change (%, negative = inhibition) at 1uM
39 | O=C1CCc2ccc(NS(=O)(=O)c3ccc(F)cc3)cc2N1 | 9.6%
40 | COCCN(C(=S)Nc1cc(C)ccc1C)C(C)c1cccnc1 (stereo not drawn) | 6.21%
41 | OCC1OC(n2cnc3c(NC4CCCC4)ncnc32)C(O)C1O (stereo not drawn) | 4.43%
42 | CC1=NN(C(=O)Cn2nc([N+](=O)[O-])c(Br)c2C)C(O)(C(F)(F)F)C1 (stereo not drawn) | 4.9%
43 | CCOC(=O)C(O)(CC(=O)c1ccc(OC)cc1)C(F)(F)F (stereo not drawn) | -5.47%
44 | Cc1cccc(C(=O)O/N=C(\c2ccccc2)c2cccnc2)c1 | 8.7%
45 | COCCNC(=O)C(=O)NCC(c1ccc2c(c1)OCO2)N1CCN(c2ccc(F)cc2)CC1 (stereo not drawn) | -5.97%
46 | CC(=O)Nc1ccc(N2C(=O)CC(Sc3nccc(C)n3)C2=O)cc1 (stereo not drawn) | 9.58%
47 | NC(=O)C1(N2CCCCC2)CCN(Cc2ccccc2)CC1 | 6.94%
48 | NS(=O)(=O)c1ccc(NC(=S)NCc2ccccc2)cc1 | 15.3%
49 | Cc1cc(C)cc(C(=O)Nc2cccnc2)c1 | 11.8%
50 | COc1ccc(S(=O)(=O)N2CCOCC2)c2ccccc12 | 7.15%
51 | CC(C)C(NC(=O)C1CCC(C(C)(C)C)CC1)C(=O)NCCc1ccc(S(N)(=O)=O)cc1 (stereo not drawn) | 27.2%
52 | COc1ccc(NC(=O)Cn2cc(C(=O)C3CC3)c3ccccc32)cc1 | 16%
53 | COc1cccc(C2CC(=O)Nc3cc(OC)c(OC)cc32)c1 (stereo not drawn) | 3.46%
54 | CC1C2CC(C(CN(C)C)/C2=N/O)C1(C)C (stereo not drawn) | -4.21%
55 | Cc1ccc(/C(N)=N/OC(=O)N2CCOCC2)cc1 | 6.64%
56 | O=C(/C=C/c1ccccc1)Nc1ccc2c(c1)C(=O)NC2=O | 1.61%
57 | Cc1ccc(-c2c[n+](CC(=O)Nc3nc(-c4ccccc4)cs3)c3n2CCC3)cc1.[Cl-] | 0.194%
